Test results taken from the supplement of paper PMC8728848.
The list shows a part of the results.

Key:
Assay in all cases: glycan array binding signal (z-score within array); higher = stronger binding
Details in all cases: glycan notation: IUPAC condensed, linker removed
[1] = target: GlcNAc(b1-2)[GlcNAc(b1-4)]Man(a1-3)[GlcNAc(b1-4)][GlcNAc(b1-2)[GlcNAc(b1-6)]Man(a1-6)]Man(b1-4)GlcNAc(b1-4)GlcNAc
In short: (§1)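 From the Consortium for Functional Glycomics database, 3228 arrays were curated, keeping only those whose protein sequence was available. Binding is given as a within-array Z-score averaged across arrays sharing a protein sequence and across linkers. Negative Z-scores can be read as non-binding.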

[2] = target: GlcNAc(b1-2)[GlcNAc(b1-4)]Man(a1-3)[GlcNAc(b1-4)][GlcNAc(b1-2)[GlcNAc(b1-6)]Man(a1-6)]Man(b1-4)GlcNAc(b1-4)[Fuc(a1-6)]GlcNAc
In short: as §1

[3] = target: GlcNAc(b1-2)[GlcNAc(b1-6)]Man(a1-6)[GlcNAc(b1-2)Man(a1-3)]Man(b1-4)GlcNAc(b1-4)GlcNAc
In short: as §1

[4] = target: GlcNAc(b1-2)[GlcNAc(b1-6)]Man(a1-6)[GlcNAc(b1-2)Man(a1-3)]Man(b1-4)GlcNAc(b1-4)[Fuc(a1-6)]GlcNAc
In short: as §1

[5] = target: GlcNAc(b1-2)[GlcNAc(b1-6)]Man(a1-6)[GlcNAc(b1-4)][GlcNAc(b1-2)Man(a1-3)]Man(b1-4)GlcNAc(b1-4)GlcNAc
In short: as §1

GlcNAc(b1-3)Fuc = target: GlcNAc(b1-3)Fuc
In short: as §1

GlcNAc(b1-3)Gal = target: GlcNAc(b1-3)Gal
In short: as §1

[6] = target: GlcNAc(b1-3)Gal(b1-3)GalNAc
In short: as §1

GlcNAc(b1-3)Gal(b1-4)Glc = target: GlcNAc(b1-3)Gal(b1-4)Glc
In short: as §1

[7] = target: GlcNAc(b1-3)Gal(b1-4)GlcNAc
In short: as §1

[8] = target: GlcNAc(b1-3)Gal(b1-4)GlcNAc(b1-2)Man(a1-3)[GlcNAc(b1-3)Gal(b1-4)GlcNAc(b1-2)Man(a1-6)]Man(b1-4)GlcNAc(b1-4)GlcNAc
In short: as §1

[9] = target: GlcNAc(b1-3)Gal(b1-4)GlcNAc(b1-2)Man(a1-3)[GlcNAc(b1-3)Gal(b1-4)GlcNAc(b1-2)Man(a1-6)]Man(b1-4)GlcNAc(b1-4)[Fuc(a1-6)]GlcNAc
In short: as §1

[10] = target: GlcNAc(b1-3)Gal(b1-4)GlcNAc(b1-2)[GlcNAc(b1-3)Gal(b1-4)GlcNAc(b1-6)]Man(a1-6)[GlcNAc(b1-3)Gal(b1-4)GlcNAc(b1-2)Man(a1-3)]Man(b1-4)GlcNAc(b1-4)GlcNAc
In short: as §1

[11] = target: GlcNAc(b1-3)Gal(b1-4)GlcNAc(b1-3)Gal(b1-4)GlcNAc
In short: as §1

[12] = target: GlcNAc(b1-3)Gal(b1-4)GlcNAc(b1-3)Gal(b1-4)GlcNAc(b1-2)Man(a1-3)[GlcNAc(b1-3)Gal(b1-4)GlcNAc(b1-3)Gal(b1-4)GlcNAc(b1-2)Man(a1-6)]Man(b1-4)GlcNAc(b1-4)GlcNAc
In short: as §1

[13] = target: GlcNAc(b1-3)Gal(b1-4)GlcNAc(b1-3)Gal(b1-4)GlcNAc(b1-2)Man(a1-3)[GlcNAc(b1-3)Gal(b1-4)GlcNAc(b1-3)Gal(b1-4)GlcNAc(b1-2)Man(a1-6)]Man(b1-4)GlcNAc(b1-4)[Fuc(a1-6)]GlcNAc
In short: as §1

[14] = target: GlcNAc(b1-3)Gal(b1-4)GlcNAc(b1-3)Gal(b1-4)GlcNAc(b1-2)[GlcNAc(b1-3)Gal(b1-4)GlcNAc(b1-3)Gal(b1-4)GlcNAc(b1-6)]Man(a1-6)[GlcNAc(b1-3)Gal(b1-4)GlcNAc(b1-3)Gal(b1-4)GlcNAc(b1-2)Man(a1-3)]Man(b1-4)GlcNAc(b1-4)[Fuc(a1-6)]GlcNAc
In short: as §1

[15] = target: GlcNAc(b1-3)Gal(b1-4)GlcNAc(b1-3)Gal(b1-4)GlcNAc(b1-3)Gal(b1-4)GlcNAc(b1-2)Man(a1-3)[GlcNAc(b1-3)Gal(b1-4)GlcNAc(b1-3)Gal(b1-4)GlcNAc(b1-3)Gal(b1-4)GlcNAc(b1-2)Man(a1-6)]Man(b1-4)GlcNAc(b1-4)GlcNAc
In short: as §1

[16] = target: GlcNAc(b1-3)Gal(b1-4)GlcNAc(b1-3)Gal(b1-4)GlcNAc(b1-3)Gal(b1-4)GlcNAc(b1-2)Man(a1-3)[GlcNAc(b1-3)Gal(b1-4)GlcNAc(b1-3)Gal(b1-4)GlcNAc(b1-3)Gal(b1-4)GlcNAc(b1-2)Man(a1-6)]Man(b1-4)GlcNAc(b1-4)[Fuc(a1-6)]GlcNAc
In short: as §1

[17] = target: GlcNAc(b1-3)Gal(b1-4)GlcNAc(b1-3)Gal(b1-4)GlcNAc(b1-3)Gal(b1-4)GlcNAc(b1-2)[GlcNAc(b1-3)Gal(b1-4)GlcNAc(b1-3)Gal(b1-4)GlcNAc(b1-3)Gal(b1-4)GlcNAc(b1-6)]Man(a1-6)[GlcNAc(b1-3)Gal(b1-4)GlcNAc(b1-3)Gal(b1-4)GlcNAc(b1-3)Gal(b1-4)GlcNAc(b1-2)Man(a1-3)]Man(b1-4)GlcNAc(b1-4)[Fuc(a1-6)]GlcNAc
In short: as §1

[18] = target: GlcNAc(b1-3)Gal(b1-4)GlcNAc(b1-3)Gal(b1-4)GlcNAc(b1-3)Gal(b1-4)GlcNAc(b1-3)Gal(b1-4)GlcNAc(b1-2)Man(a1-3)[GlcNAc(b1-3)Gal(b1-4)GlcNAc(b1-3)Gal(b1-4)GlcNAc(b1-3)Gal(b1-4)GlcNAc(b1-3)Gal(b1-4)GlcNAc(b1-2)Man(a1-6)]Man(b1-4)GlcNAc(b1-4)GlcNAc
In short: as §1

[19] = target: GlcNAc(b1-3)Gal(b1-4)GlcNAc(b1-3)Gal(b1-4)GlcNAc(b1-3)Gal(b1-4)GlcNAc(b1-3)Gal(b1-4)GlcNAc(b1-2)Man(a1-3)[GlcNAc(b1-3)Gal(b1-4)GlcNAc(b1-3)Gal(b1-4)GlcNAc(b1-3)Gal(b1-4)GlcNAc(b1-3)Gal(b1-4)GlcNAc(b1-2)Man(a1-6)]Man(b1-4)GlcNAc(b1-4)[Fuc(a1-6)]GlcNAc
In short: as §1

[20] = target: GlcNAc(b1-3)Gal(b1-4)GlcNAc(b1-3)Gal(b1-4)GlcNAc(b1-3)Gal(b1-4)GlcNAc(b1-3)Gal(b1-4)GlcNAc(b1-2)[GlcNAc(b1-3)Gal(b1-4)GlcNAc(b1-3)Gal(b1-4)GlcNAc(b1-3)Gal(b1-4)GlcNAc(b1-3)Gal(b1-4)GlcNAc(b1-6)]Man(a1-6)[GlcNAc(b1-3)Gal(b1-4)GlcNAc(b1-3)Gal(b1-4)GlcNAc(b1-3)Gal(b1-4)GlcNAc(b1-3)Gal(b1-4)GlcNAc(b1-2)Man(a1-3)]Man(b1-4)GlcNAc(b1-4)[Fuc(a1-6)]GlcNAc
In short: as §1

B1: RBMC1 (Vibrio cholerae) (protein)
chain: QQSQRVVTADNLMYLRSGFAIDAIGTTVNNLVGGPVQGTNGGVLRAPIALDQLQSVEVTSGLYNWGGYHIVAIKFTMKDGSSVLLGSTHYASNKKVETYTVPQGKRIKQINVWTGGWLVEGFQFVY
glycan array binding signal (z-score) [1]: -0.345 | glycan array binding signal (z-score) [2]: -0.26 | glycan array binding signal (z-score) [3]: -0.265 | glycan array binding signal (z-score) [4]: -0.256 | glycan array binding signal (z-score) [5]: -0.405 | glycan array binding signal (z-score) (GlcNAc(b1-3)Fuc): -0.337 | glycan array binding signal (z-score) (GlcNAc(b1-3)Gal): -0.336 | glycan array binding signal (z-score) [6]: -0.195 | glycan array binding signal (z-score) (GlcNAc(b1-3)Gal(b1-4)Glc): -0.395 | glycan array binding signal (z-score) [7]: -0.434 | glycan array binding signal (z-score) [8]: 1.91 | glycan array binding signal (z-score) [9]: 2.83 | glycan array binding signal (z-score) [10]: -0.295 | glycan array binding signal (z-score) [11]: -0.354 | glycan array binding signal (z-score) [12]: 0.504 | glycan array binding signal (z-score) [13]: 2.5 | glycan array binding signal (z-score) [14]: -0.261 | glycan array binding signal (z-score) [15]: 1.38 | glycan array binding signal (z-score) [16]: 1.96 | glycan array binding signal (z-score) [17]: -0.366 | glycan array binding signal (z-score) [18]: 1.54 | glycan array binding signal (z-score) [19]: 0.918 | glycan array binding signal (z-score) [20]: -0.273
